Reference: a collection of fitness landscapes (doi:10.1016/j.celrep.2020.107928)
Whole data set: some 81,000 sequences, median “one-hybrid fitness for binding parS DNA” near -0.17, cut for the highest 2% near 0.51. Some of the results follow.

B1: Caulobacter ParB omega fusion; a variant is named by its letters at X, in order, B8GW30 (parent)
chain: MESVVVGEPGMSEGRRGLGRGLSALLGEVDAAPAQAPGEQLGGSREAPIEILQRNPDQPRRTFREEDLEDLSNSIREKGVLQPILVRPSPDTAGEYQIVAGERAWRAAQRAGLKTVPIMVRELDDLAVLEIGIIENVQRADLNVLEEALSYKVLMEKFERTQENIAQTIGKSXSHVANXMRLLXLPDEVQSYLVSGELTAXHARAIAAAADPVALAKQIIEGGLSVRETEALARKAPNLSAGKSKGGRPPRVKDTDTQALESDLSSVLGLDVSIDHRGSTGTLTITYATLEQLDDLCNRLTRGI

Variants of: B1
Assay: one-hybrid fitness for binding parS DNA (scaled: cognate 1, non-cognate 0); higher = stronger binding
Conditions: with parS DNA site
Summary of the method: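 Values were rescaled so that cognate is 1 and non-cognate is 0. Each is a fitness, the log change in a variant's read ratio to wild type from Illumina reads of plasmids before and after selection, with three replicate libraries pooled and variants under 10 reads dropped. Selection of the Caulobacter ParB libraries, four specificity codons randomised, used E. coli USO with a HIS3 reporter, site 19 bp from the promoter, on M9-minus-histidine with 0.1 mM IPTG and 5 mM 3-AT for 48 hours at 37°C.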

Row | Variant | one-hybrid fitness for binding parS DNA
1 | GPNC | ≤ 0.2
2 | MASA | ≤ 0.2
3 | SDPI | ≤ 0.2
4 | SDPK | ≤ 0.2
5 | HMAV | ≤ 0.2
6 | LGPM | ≤ 0.2
7 | GRPA | ≤ 0.2
8 | CNTC | ≤ 0.2
9 | NWYR | ≤ 0.2
10 | PAKG | ≤ 0.2
11 | ETAK | ≤ 0.2
12 | QDWY | ≤ 0.2
13 | FIRR | ≤ 0.2
14 | IALD | ≤ 0.2
15 | WTPR | ≤ 0.2
16 | NKSC | ≤ 0.2
17 | YDGM | ≤ 0.2
18 | VTKP | ≤ 0.2
19 | VDTF | ≤ 0.2
20 | TSLA | ≤ 0.2
21 | PKRE | ≤ 0.2
22 | PGAD | ≤ 0.2
23 | QLEH | ≤ 0.2
24 | FSTA | ≤ 0.2
25 | AAIY | ≤ 0.2

Row | Variant | one-hybrid fitness for binding parS DNA
26 | LKPY | ≤ 0.2
27 | MFTT | ≤ 0.2
28 | SFRT | ≤ 0.2
29 | HHLC | ≤ 0.2
30 | PYMG | ≤ 0.2
31 | VLKK | ≤ 0.2
32 | KHCR | ≤ 0.2
33 | PPET | ≤ 0.2
34 | ANKK | ≤ 0.2
35 | NAQS | ≤ 0.2
36 | VNLK | ≤ 0.2
37 | QDLP | ≤ 0.2
38 | EDCR | ≤ 0.2
39 | HDST | ≤ 0.2
40 | IGMD | ≤ 0.2
41 | HPLM | ≤ 0.2
42 | EIYS | ≤ 0.2
43 | LHAT | ≤ 0.2
44 | QMWP | ≤ 0.2
45 | QMER | ≤ 0.2
46 | VRQG | ≤ 0.2
47 | TQAQ | ≤ 0.2
48 | MGMA | ≤ 0.2
49 | VVGI | ≤ 0.2
50 | WDTA | ≤ 0.2

Row | Variant | one-hybrid fitness for binding parS DNA
51 | NWNG | ≤ 0.2
52 | RERS | 0.529
53 | KDLL | ≤ 0.2
54 | FYSG | ≤ 0.2
55 | FYHC | ≤ 0.2
56 | QIQF | ≤ 0.2
57 | WAKV | ≤ 0.2
58 | RFKY | 0.569
59 | IHYT | ≤ 0.2
60 | HNRE | ≤ 0.2
61 | PKPK | ≤ 0.2
62 | QPIS | ≤ 0.2
63 | AWLF | ≤ 0.2
64 | SEVT | ≤ 0.2
65 | HRKK | ≤ 0.2
66 | VYRW | ≤ 0.2
67 | RKPI | ≤ 0.2
68 | DAYS | ≤ 0.2
69 | HQTS | ≤ 0.2
70 | QMDT | ≤ 0.2
71 | TSPA | ≤ 0.2
72 | SGHT | ≤ 0.2
73 | RNLD | ≤ 0.2
74 | CQTA | ≤ 0.2
75 | FAPR | ≤ 0.2

Row | Variant | one-hybrid fitness for binding parS DNA
76 | PPGD | ≤ 0.2
77 | LKCD | ≤ 0.2
78 | RAFR | ≤ 0.2
79 | LQMR | ≤ 0.2
80 | GFSL | ≤ 0.2
81 | SCKR | ≤ 0.2
82 | RRPM | 0.215
83 | PDYV | ≤ 0.2
84 | SQLK | ≤ 0.2
85 | PFPA | ≤ 0.2
86 | NYPT | ≤ 0.2
87 | TELW | ≤ 0.2
88 | YRTR | ≤ 0.2
89 | AWDT | ≤ 0.2
90 | EHEN | ≤ 0.2
91 | VVNI | ≤ 0.2
92 | FLEM | ≤ 0.2
93 | PTQE | ≤ 0.2
94 | NQMN | ≤ 0.2
95 | VHHW | ≤ 0.2
96 | ANAD | ≤ 0.2
97 | YENS | ≤ 0.2
98 | LANS | ≤ 0.2
99 | DDQL | ≤ 0.2
100 | TARG | ≤ 0.2

Row | Variant | one-hybrid fitness for binding parS DNA
101 | TVYR | ≤ 0.2
102 | FRVA | ≤ 0.2
103 | VTQR | ≤ 0.2
104 | SDYQ | ≤ 0.2
105 | SQDL | ≤ 0.2
106 | YTGG | ≤ 0.2
107 | SIHC | ≤ 0.2
108 | RKYK | ≤ 0.2
109 | QQKT | ≤ 0.2
110 | SPPS | ≤ 0.2
111 | SAWV | ≤ 0.2
112 | QSVD | ≤ 0.2
113 | KDRW | ≤ 0.2
114 | ITVR | ≤ 0.2
115 | SRLI | ≤ 0.2
116 | TYPW | ≤ 0.2
117 | EAVQ | ≤ 0.2
118 | QMPF | ≤ 0.2
119 | GNPI | ≤ 0.2
120 | TQRK | ≤ 0.2
121 | RNMW | ≤ 0.2
122 | WQNG | ≤ 0.2
123 | PVHA | ≤ 0.2
124 | HTMV | ≤ 0.2
125 | CVCT | ≤ 0.2

Row | Variant | one-hybrid fitness for binding parS DNA
126 | CTFR | ≤ 0.2
127 | ELEP | ≤ 0.2
128 | RMPW | ≤ 0.2
129 | VTSA | ≤ 0.2
130 | GAVN | ≤ 0.2
131 | RKFW | ≤ 0.2
132 | WGPR | ≤ 0.2
133 | GTWR | ≤ 0.2
134 | QKQK | ≤ 0.2
135 | LYWA | ≤ 0.2
136 | QIHS | ≤ 0.2
137 | YHSW | ≤ 0.2
138 | SPYL | ≤ 0.2
139 | KKDG | ≤ 0.2
140 | IMFG | ≤ 0.2
141 | QRPF | ≤ 0.2
142 | SKCM | ≤ 0.2
143 | LQKL | ≤ 0.2
144 | RKNR | ≤ 0.2
145 | ISNF | ≤ 0.2
146 | LWKR | ≤ 0.2
147 | HTSA | ≤ 0.2
148 | QTMI | ≤ 0.2
149 | VPST | ≤ 0.2
150 | PTVC | ≤ 0.2

Row | Variant | one-hybrid fitness for binding parS DNA
151 | YTGC | ≤ 0.2
152 | AKQG | ≤ 0.2
153 | SSKV | ≤ 0.2
154 | ELLS | ≤ 0.2
155 | QCLS | ≤ 0.2
156 | INVY | ≤ 0.2
157 | HPMI | ≤ 0.2
158 | HNNK | ≤ 0.2
159 | DYNS | ≤ 0.2
160 | TAMC | ≤ 0.2
161 | SWDT | ≤ 0.2
162 | LDWE | ≤ 0.2
163 | ATNN | ≤ 0.2
164 | GNTY | ≤ 0.2
165 | FREY | ≤ 0.2
166 | SVGR | ≤ 0.2
167 | DLDL | ≤ 0.2
168 | SQQK | ≤ 0.2
169 | LQVR | ≤ 0.2
170 | AETV | ≤ 0.2
171 | SRIC | ≤ 0.2
172 | LGNS | ≤ 0.2
173 | NQPS | ≤ 0.2
174 | LLNY | ≤ 0.2
175 | ATQI | ≤ 0.2

Row | Variant | one-hybrid fitness for binding parS DNA
176 | AIWD | ≤ 0.2
177 | PRMG | ≤ 0.2
178 | ARTI | ≤ 0.2
179 | ISNC | ≤ 0.2
180 | PRPP | ≤ 0.2
181 | RCET | 0.758
182 | LYIS | ≤ 0.2
183 | FDPI | ≤ 0.2
184 | TFTR | ≤ 0.2
185 | GCVM | ≤ 0.2
186 | AATG | ≤ 0.2
187 | QFNW | ≤ 0.2
188 | WSKI | ≤ 0.2
189 | QYSF | ≤ 0.2
190 | CAAY | ≤ 0.2
191 | FQIT | ≤ 0.2
192 | LCDM | ≤ 0.2
193 | QGDA | ≤ 0.2
194 | LGGC | ≤ 0.2
195 | AMTG | ≤ 0.2
